Where “and” joins values, the source holds several entries; their conditions need not be identical. Identical values can stand only once. This list was built around the results that the source calls inconclusive (neither active nor inactive); the mix of calls is not that of the screen. For some assays here: Potencies of inconclusive entries are doubtful fits and often do not repeat. Calls of active or inactive are those of the source. Calls follow the shape of the dose curve; as a rule, active = well fitted inhibition curve with a large enough effect; inconclusive = small, poorly fitted or top-dose-only effect; inactive = flat fitted curve, though single readings scatter. Non-standard residues stand in square brackets, D forms with d. Residues, ends and D or L forms follow the SMILES beside them. *: point of attachment. Dolaproine = CO[C@@H]([C@@H]1CCCN1)[C@@H](C)C(=O)O; Dil = CC[C@H](C)[C@H](NC)[C@@H](CC(=O)O)OC; Doe = c1ccc(C[C@H](N*)c2nccs2)cc1; Aib = CC(C)(N)C(=O)O
Experiments:
KB-3-1 = experiment: Cytotoxic Profiling of Annotated Libraries Using Quantitative High-Throughput Screening (AID 1296008); conditions: Five cell lines viability, CellTiter-Glo ATP luminescence, 48-72 h; max response: stronger effect = lower value; also: nearly all actives have a fitted effect of over 60% in size
In short: (§1)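 Compounds were pin-transferred onto cells and incubated 48 or 72 hr at 37 degree Celsius, 95% humidity. CellTiter-Glo was added, plates sat 10 min at room temperature, then ATP-coupled luminescence was imaged as the viability read-out.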

NIH3T3 = experiment: as above; conditions: Five cell lines viability, CellTiter-Glo ATP luminescence, 48-72 h; max response: stronger effect = lower value
In short: as §1

[1] = Drug repurposing screens with cells derived from glioblastoma tumor samples (AID 1345199); conditions: GBM patient neurospheres viability, ATP luminescence, 48 h; Potency: tumour line A unless noted; series mostly up to 46 µM; also: nearly all actives have a fitted effect of over 40% in size
In short: (§2)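 Four patient lines of CD133+ GBM neurospheres were screened at several concentrations; hits were retested in those lines plus three slower-growing GBM lines, using 48-hour treatment and ATP-based viability.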

astro = experiment: as above; conditions: viability, ATP luminescence, 48 h; activity, negative = cell killing: at 45.9 µM (top of the series) unless noted
In short: as §2
% is scaled to controls: 0 for no effect and ±100 for the full control effect; potency is read from the fitted curve at half-maximal effect; tags tell the direction and shape of the fitted curve.

O=c1cccc2n1CC1CNC[C@H]2C1
outcome (KB-3-1): inactive
max response (NIH3T3): inactive: -3.34%

CC[C@H](C)[C@@H]([C@@H](CC(=O)N1CCC[C@H]1[C@H](OC)[C@@H](C)C(=O)N[C@@H](Cc1ccccc1)c1nccs1)OC)N(C)C(=O)[C@@H](NC(=O)C(C)(C)N)C(C)C (H-[Aib]V[Dil][Dolaproine]-Doe)
Potency (KB-3-1): active: 0.001 µM
max response (NIH3T3): inactive: -54.1%

C[C@]12CC[C@H](O)C[C@H]1CC[C@@H]1[C@@H]2[C@H](O)C[C@]2(C)[C@@H](c3ccc(=O)oc3)CC[C@]12O
Potency (KB-3-1): active: 0.0517 µM
Potency (NIH3T3): inconclusive: 29.1 µM [inhibitor, single point]

COc1ccc(C(C)(C)C)cc1CN[C@H]1C2CCN(CC2)[C@H]1C(c1ccccc1)c1ccccc1
Potency (KB-3-1): inconclusive: 18.4 µM [inhibitor, single point]
max response (NIH3T3): inactive: -16.4%

C=CCN=C=S
max response (KB-3-1): inactive: -2.35%
Potency [1]: inconclusive: 3.98 µM [inhibitor, full curve, poor fit]

CC(=O)OC[C@]12C[C@H](OC(=O)CC(C)C)C(C)=C[C@H]1O[C@@H]1[C@H](O)[C@@H](OC(C)=O)[C@@]2(C)[C@@]12CO2
Potency (KB-3-1): active: 0.0355 µM
Potency (NIH3T3): active: 0.0502 µM

C[C@@H]1CN(Cc2ccc(F)cc2)CCN1C(=O)COc1ccc(Cl)cc1NC(N)=O
Potency (KB-3-1): inconclusive: 1.3 µM [inhibitor, full curve]
Potency (NIH3T3): inconclusive: 6.51 µM [inhibitor, full curve, poor fit]

Fc1cc(F)c2c(c1)C1C=CCC1C(c1cccnc1)N2 (stereo not given)
Potency (KB-3-1): active: 4.61 µM
Potency (NIH3T3): inconclusive: 18.4 µM [inhibitor, single point]

Cc1cccc(C)c1NC(=O)CN1CCCC1=O
max response (KB-3-1): inactive: -16.8% and inactive: -6.89%
max response (NIH3T3): inactive: 1.47% and inactive: -1.95%
Potency [1]: inactive
Potency (astro): inactive

Source: PubChem BioAssay (NCATS)
